According to PubChem BioAssay AID1468 (National Center for Advancing Translational Sciences (NCATS), 2008):
About 1,100 (0.39%) of roughly 280,000 compounds were called active. The inconclusive results got no clear call from the source; some entries with a clear call stand among them for comparison. The call rests on the fitted dose curve; in most records, active means well fitted inhibition curve with a large enough effect; inconclusive means small, poorly fitted or top-dose-only effect, or effect the other way; inactive means flat fitted curve, though single readings scatter. Potencies beside an inconclusive call are fits to weak or partial responses and may not hold up.

biological target: Microtubule-associated protein tau (Homo sapiens) (UniProt P10636); assay: qHTS for Inhibitors of Tau Fibril Formation, Fluorescence Polarization; details: K18 P301L tau heparin fibrillization, Alexa594 FP, 6 h; series mostly up to 57.7 µM; activity, negative = inhibition: at the top concentration; further: nearly all actives have a fitted effect of over 55% in size
UniProt P10636, sequence (P10636 whole entry, looked up): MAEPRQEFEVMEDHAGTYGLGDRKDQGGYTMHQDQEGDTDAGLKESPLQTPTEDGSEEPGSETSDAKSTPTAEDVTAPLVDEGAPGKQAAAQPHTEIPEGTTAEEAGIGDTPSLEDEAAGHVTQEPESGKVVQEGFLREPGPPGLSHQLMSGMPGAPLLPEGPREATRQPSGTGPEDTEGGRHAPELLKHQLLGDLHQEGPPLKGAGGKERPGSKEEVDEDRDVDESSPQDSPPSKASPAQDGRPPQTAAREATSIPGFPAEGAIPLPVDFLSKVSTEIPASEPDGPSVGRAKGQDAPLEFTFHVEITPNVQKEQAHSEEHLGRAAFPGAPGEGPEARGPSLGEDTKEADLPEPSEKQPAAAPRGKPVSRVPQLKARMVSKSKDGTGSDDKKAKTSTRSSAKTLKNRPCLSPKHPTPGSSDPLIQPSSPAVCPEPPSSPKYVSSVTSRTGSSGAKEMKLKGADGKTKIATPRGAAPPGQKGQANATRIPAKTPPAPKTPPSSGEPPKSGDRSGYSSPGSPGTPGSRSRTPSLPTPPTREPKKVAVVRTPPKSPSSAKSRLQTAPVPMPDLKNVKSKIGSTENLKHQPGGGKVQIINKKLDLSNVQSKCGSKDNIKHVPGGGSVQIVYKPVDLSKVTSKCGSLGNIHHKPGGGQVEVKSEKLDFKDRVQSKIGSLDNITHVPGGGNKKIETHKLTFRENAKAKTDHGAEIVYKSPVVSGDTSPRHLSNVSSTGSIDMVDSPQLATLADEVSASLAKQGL
Method in brief: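 Recombinant K18 P301L […], labeled with Alexa 594 at 0.24 uM over 15 uM unlabeled; heparin inducer 20 uM final; 37 C, 6 hr; FP endpoint.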
On the % scale 0 is the no-effect control and ±100 the full control effect; potency means the concentration at half of the fitted maximal effect; tags describe the fitted curve by direction and shape.

Potency, active:
O=C(NC1CCCCC1)c1c[nH]c2ccc(S(=O)(=O)Nc3ccccc3F)cc2c1=O 28.2 µM

Potency, inactive:
CN(CCc1ccc(Cl)c(Cl)c1)CCN1CCCC1

Potency, inconclusive:
CCc1cccc(NS(=O)(=O)c2ccc(-n3cccn3)cc2)c1 39.8 µM [inhibitor, single point], CCCCS(=O)(=O)CC(O)CSc1nc(-c2ccc(C)cc2)cc(-c2ccccc2)c1C#N (stereo unspecified) 22.4 µM [inhibitor, partial curve], CCOc1ccccc1NC(=O)c1cc(C(=O)c2cc(Br)ccc2O)coc1=N 15.8 µM [inhibitor, partial curve], COC(=O)Oc1nsnc1N1CCOCC1 28.2 µM [inhibitor, partial curve], CC1(C)Cc2ccccc2-c2nc(NCCCO)[nH]c(=O)c21 8.91 µM [inhibitor, single point], O=C(NCCCN1CCN(c2ccc(F)cc2)CC1)c1cnn(-c2ccc(F)cc2)c1-n1cccc1 7.08 µM [activator, partial curve, poor fit], Cc1csc(NC(=O)CCc2c(C)nc3cc(-c4ccc(Cl)cc4)nn3c2C)n1 28.2 µM [inhibitor, single point], CCC(C)[C@H](NC(=O)Nc1cccc(Br)c1)C(=O)OC (stereo partly specified) 39.8 µM [inhibitor, single point], Cc1ccc(N=Cc2cc(Cc3ccccc3Cl)cc([N+](=O)[O-])c2O)c(O)c1 31.6 µM [inhibitor, single point], Cc1ccc(NS(=O)(=O)c2cc([N+](=O)[O-])ccc2NNC(=S)Nc2cccc(Cl)c2)c(C)c1 35.5 µM [inhibitor, single point], CCCCC(=NCCc1c(C)[nH]c2ccc(OC)cc12)C1=C(O)CC(c2ccccc2)CC1=O (stereo unspecified) 8.91 µM [activator, partial curve, poor fit], O=S(=O)([O-])CCC[n+]1c(SCCCS(=O)(=O)O)sc2ccc(Cl)cc21 39.8 µM [inhibitor, single point], CCOc1cccc2sc(=NC(=O)c3ccco3)n(CC(=O)OC)c12 39.8 µM [activator, single point], Cc1ccc(OCC(=O)Nc2ccc(Cl)c(-c3nc4ccccc4[nH]3)c2)cc1C 25.1 µM [inhibitor, partial curve], CC(=O)N(C)c1ccc(NC(=O)C(F)(F)F)cc1 44.7 µM [inhibitor, single point], CC(=O)N1CCCC(C(=O)c2ccc3c4c(cccc24)CC3)C1 (stereo unspecified) 44.7 µM [activator, single point], COc1ccc(/C=N/Nc2nc3ccccc3c(=O)n2-c2ccccc2)cc1OC 10 µM [activator, partial curve], COc1ccc(NC(=O)CSc2nnc(NC(=O)Nc3ccccc3)s2)c(OC)c1 7.94 µM [inhibitor, partial curve], O=C(c1ccc2[nH]c3c(c2c1)CCCC3)N1CCN(c2ccc(F)cc2)CC1 0.501 µM [activator, full curve, poor fit], C=CCc1cccc(/C=N/NC(=O)C(C)Nc2ccc(C)cc2)c1O (stereo unspecified) 39.8 µM [activator, single point], Cc1ccc(N=Cc2cc3c(cc2O)OC(N)=C(C#N)C3c2ccccc2)cc1 (stereo unspecified) 31.6 µM [inhibitor, partial curve], COc1ccccc1NC(=S)N(Cc1cccs1)C1CCCC1 0.178 µM [inhibitor, single point], COc1ccccc1Nc1cc(C(=O)NCc2cccnc2)c2ccccc2n1 15.8 µM [activator, partial curve], CCc1ccc(N2C(=O)Cc3c2nc(N)c(C#N)c3N)cc1 39.8 µM [inhibitor, single point], COc1ccc(-n2c(/C=C/c3cccc4ccccc34)nc3ccccc3c2=O)cc1Cl 44.7 µM [inhibitor, single point]

activity, negative = inhibition, inactive:
COc1ccc2c(CC(=O)OCC(=O)Nc3ccc4c(c3)OCO4)coc2c1 0.643%, O=C1c2cccc3c(O)ccc(c23)C(=O)N1Cc1ccccc1 8.71%, Cc1ccnc(N2C(=O)c3cccc4c([N+](=O)[O-])ccc(c34)C2=O)c1 0.627%, O=S(=O)(c1cnc(Cl)c(Br)c1)N1CCN(c2ncccn2)CC1 -2.12%, CCN(CC)S(=O)(=O)c1ccc2c(c1)N(CC(=O)N(C)Cc1ccccc1)C(=O)CO2 -1.41%, Cc1cccc(NC(=S)N/C(=N/S(=O)(=O)c2ccccc2)c2ccccc2)c1 1.72%, O=C(OCC(=O)N1CCN(C(=O)c2ccco2)CC1)c1ccccc1 7.32%, C=C(C)CSc1nc2ncc(Cl)cc2[nH]1 0.688%, CCOc1ccc(Br)cc1S(=O)(=O)NCc1ccc(S(N)(=O)=O)cc1 4.92%, Cn1cc(C(=O)NCc2ccc(Cl)cc2)c(=O)c2cc(S(=O)(=O)N3CCCCCC3)ccc21 0.646%, Cc1cc([N+](=O)[O-])ccc1NC(=O)c1ccco1 -6.8%, CCOC(=O)NNc1ccccc1 -5.99%, COc1cc(/C=C/c2ccc3cccc([N+](=O)[O-])c3n2)ccc1OCC#N -9.01%, COC(CNC(=S)Nc1ccc([N+](=O)[O-])cc1)OC -7.07%, O=C(NCCSCc1ccccc1Cl)C1CCN(S(=O)(=O)Cc2ccccc2)CC1 2.86%, N#Cc1ccccc1Cn1c(=O)n(CCCCC(=O)NCc2ccc3c(c2)OCO3)c(=O)c2ccccc21 -5.62%, O=C(Cc1ccc(F)cc1)N1CCC(c2nc3c(nnn3Cc3ccc(F)cc3)c(=O)[nH]2)CC1 2.52%, Cc1ccc(CN(C(=O)COc2ccc(C(C)C)cc2)C2CCS(=O)(=O)C2)o1 (stereo unspecified) -13.5%, Cc1cc(C)nc(SCc2nnc(SCC(=O)Nc3nccs3)n2Cc2ccco2)n1 -0.957%
